The results in this text go back to US20110177071A1 (PERSEID THERAPEUTICS, published 2011).

For experiment [1], the target named is T1, human CD86-murine Ig fusion protein (human).
T1 construct: Bought (Ancell #509-820); also called hCD86-mIg
T1 chain: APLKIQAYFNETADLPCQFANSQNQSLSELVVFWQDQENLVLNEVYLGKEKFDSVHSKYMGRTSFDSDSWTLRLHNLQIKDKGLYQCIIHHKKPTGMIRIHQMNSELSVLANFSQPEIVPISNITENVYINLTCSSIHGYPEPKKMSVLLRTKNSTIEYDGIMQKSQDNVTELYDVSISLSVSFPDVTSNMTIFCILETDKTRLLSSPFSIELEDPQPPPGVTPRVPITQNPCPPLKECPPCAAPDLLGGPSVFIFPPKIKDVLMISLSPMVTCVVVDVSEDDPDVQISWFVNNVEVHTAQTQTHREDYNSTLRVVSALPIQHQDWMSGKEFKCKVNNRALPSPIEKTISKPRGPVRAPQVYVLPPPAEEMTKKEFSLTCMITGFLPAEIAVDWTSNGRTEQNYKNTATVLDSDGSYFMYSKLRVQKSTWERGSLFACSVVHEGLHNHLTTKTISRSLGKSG
In words: SPR Biacore, hCD86-mIg captured. As to the method: (§1) All Biacore™ analyses were performed on a Biacore™ 2000 system (GE Healthcare) at room temperature (RT, 25° C.). HBS-EP buffer (10 mM HEPES (pH 7.4), 150 mM NaCl, 3 mM EDTA, 0.005% surfactant P20) was used as the flow buffer for all experiments.
(§2) Rabbit anti-mouse IgG antibody (GE Healthcare, #BR-1005-14) was immobilized on CM5 sensor chips (GE Healthcare, #BR-1000-14) according to the manufacturer's protocol. Antibody was diluted to 30 μg/ml in immobilization buffer (10 mM sodium acetate, pH 5.0 (BR-1003-51)). At a flow rate of 5 μl/minute, sensor chip CM5 was activated with a 35 μl injection of a mixture of 1-Ethyl-3-[3-dimethylaminopropyl]carbodiimide hydrochloride (EDC) and N-hydroxysuccinimide (NHS) (made by mixing equal volumes of 11.5 mg/ml EDC and 75 mg/ml NHS) (GE Healthcare, #BR-1000-50), followed by a 35 μl injection of undiluted antibody. Un-reacted sites were quenched with 35 μl of 1M ethanolamine-HCL, pH 8.5 (GE Healthcare, #BR-1000-50). […] CTLA-4 ligands human CD80-murine Ig (hCD80-mIg) (Ancell, #510-820) or human CD86-murine Ig (hCD86-mIg) (Ancell, #509-820) were bound to antibody-coated sensor chips by injection of 10 μl or 16 μl, respectively, ligand solution (2 μg/ml protein in HBS-EP buffer [10 mM HEPES pH 7.4, 150 mM NaCl, 3 mM EDTA, 0.005% (v/v) surfactant P-20, GE Healthcare, #BR-1001-88]) at a flow rate of 10 μl/min.
In general terms: Surface plasmon resonance follows binding to a sensor surface in real time, without labels.

The target of experiment [2] is T2, human CD80-murine Ig fusion protein (human).
T2 construct: Bought (Ancell #510-820); also called hCD80-mIg; human CD80-murine IgG
T2 chain: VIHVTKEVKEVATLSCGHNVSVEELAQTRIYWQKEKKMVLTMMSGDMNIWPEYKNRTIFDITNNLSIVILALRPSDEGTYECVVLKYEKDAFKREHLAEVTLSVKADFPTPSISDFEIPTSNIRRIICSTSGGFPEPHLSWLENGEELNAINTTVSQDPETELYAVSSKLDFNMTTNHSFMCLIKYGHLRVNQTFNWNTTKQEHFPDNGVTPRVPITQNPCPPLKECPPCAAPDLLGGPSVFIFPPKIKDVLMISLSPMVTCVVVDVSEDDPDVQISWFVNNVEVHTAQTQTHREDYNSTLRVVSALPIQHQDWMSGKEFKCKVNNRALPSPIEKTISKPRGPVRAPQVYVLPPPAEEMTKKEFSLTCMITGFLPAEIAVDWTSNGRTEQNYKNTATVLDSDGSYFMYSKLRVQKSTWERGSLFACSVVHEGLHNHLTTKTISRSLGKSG
As to the kind of experiment: SPR Biacore, hCD80-mIg captured. On the procedure:
as §1, §2

The target of experiment [3] is T3, full-length human CD86 on HEK293 cells (human, UniProt P42081 24-329).
T3 sequence: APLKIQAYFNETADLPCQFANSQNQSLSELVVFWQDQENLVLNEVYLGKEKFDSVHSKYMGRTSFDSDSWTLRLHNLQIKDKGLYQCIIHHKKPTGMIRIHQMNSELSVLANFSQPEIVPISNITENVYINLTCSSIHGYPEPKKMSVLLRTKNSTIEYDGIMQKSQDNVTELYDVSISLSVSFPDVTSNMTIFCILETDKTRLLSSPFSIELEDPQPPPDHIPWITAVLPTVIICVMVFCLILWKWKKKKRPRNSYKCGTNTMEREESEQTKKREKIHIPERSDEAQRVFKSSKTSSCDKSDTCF
As to the kind of experiment: cell-based or functional assay.

B1: human CTLA-4-IgG2 fusion protein (Fc fusion)
chain: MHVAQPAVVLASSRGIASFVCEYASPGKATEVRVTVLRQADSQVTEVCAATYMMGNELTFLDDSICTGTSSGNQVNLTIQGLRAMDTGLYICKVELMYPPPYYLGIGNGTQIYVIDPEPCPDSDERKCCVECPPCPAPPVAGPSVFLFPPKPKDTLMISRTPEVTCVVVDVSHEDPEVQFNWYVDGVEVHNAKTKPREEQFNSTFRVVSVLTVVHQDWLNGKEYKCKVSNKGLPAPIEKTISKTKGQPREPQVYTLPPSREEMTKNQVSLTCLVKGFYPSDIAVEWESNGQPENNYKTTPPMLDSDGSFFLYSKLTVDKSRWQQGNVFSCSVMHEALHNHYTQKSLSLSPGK
notes: Disulfide-linked dimer; also called hCTLA-4-IgG2; hCTLA-4-Ig
Turning to B1, the “Binding Avidity (Relative to Orencia)” value in experiment [1] amounted to 1.32 fold. For the same molecule, in experiment [2], the “Binding Avidity (Relative to Orencia)” value was 1.34 fold and binding was put at a Kd of 0.655 nM. Moreover, the “Mean IC50 (nM), CD4+ T cell proliferation” value in experiment [3] amounted to 2.24 nM.

B2: LEA29Y-Ig fusion protein (Fc fusion)
chain: MHVAQPAVVLASSRGIASFVCEYASPGKYTEVRVTVLRQADSQVTEVCAATYMMGNELTFLDDSICTGTSSGNQVNLTIQGLRAMDTGLYICKVELMYPPPYYEGIGNGTQIYVIDPEPCPDSDQ[human IgG1 Fc with changes skipped]
notes: dimer; also called Belatacept; LEA-Ig
Consider B2, for which the Kd in experiment [1] lay within 0.523 to 1.05 nM; in experiment [2], 0.219 to 0.439 nM.

One may read the Kd as a measure of binding affinity in units of concentration. High values mean a looser complex, low ones a tighter complex.
